# In PubChem BioAssay AID1347073 (National Center for Advancing Translational Sciences (NCATS), 2019):
# The campaign covered roughly 45,000 compounds. About 200 (0.44%) were called active. Another 7% or so got no clear call; they are omitted. Calls come from the whole dose curve; as a rule, active = well fitted activation curve with a large enough effect; inconclusive = small, poorly fitted or top-dose-only effect; inactive = no such curve, though single readings can be large or run the other way. This is one part of the list.
# Test: qHTS of TDP-43 Inhibitors: NCGC Sytravon Library Screen; note: 0% is about no effect; nearly all actives have a fitted effect of over 55% in size
# Conditions: yeast TDP-43 toxicity rescue, BacTiter-Glo growth, 24 h; series mostly up to 46.1 µM; growth rescue (activation): at the top concentration
# How it was run: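 TDP-43-expressing yeast, pregrown in raffinose, seeded at OD600 0.02 in galactose medium with compound for 24 hr at 30 deg C. Growth read by BacTiter-Glo luminescence, so rescue of toxicity appears as activation.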
row,SMILES,growth rescue (activation)
1,CCOC(=O)c1c(NC(=O)CSc2nc3ccccc3o2)sc(C(C)=O)c1C,inactive: 8.67%
2,CC1CCCN(S(=O)(=O)c2ccc(Cl)s2)C1 (stereo unspecified),inactive: 16.9%
3,O=C(CN1CCCc2ccccc21)N/N=C/c1c(O)ccc2ccccc12,inactive: 16.6%
4,O=C(OCCN=C1NS(=O)(=O)c2ccccc21)c1ccco1,inactive: -0.217%
5,Cc1ccc(C(=O)N2CCN(C(=O)CN3CCCC3)C2)cc1,inactive: 13.6%
6,COc1ccc(NC(=O)CSc2ccccc2)cc1S(=O)(=O)N1CCCCC1,inactive: 4.95%
7,N#Cc1ccc(CN2CCN(CC(=O)NCCc3ccc(Cl)cc3Cl)CC2)cc1,inactive: -3.74%
8,CCOc1ccc(N=C2NC(=O)/C(=C/C(=O)OC)S2)cc1,inactive: -24.7%
9,CC(C)(C)NC(=O)/C(=C\c1ccco1)NC(=O)c1ccco1,inactive: -13.7%
10,Cc1ccc(S(=O)(=O)N(C)C)cc1NC(=O)C(C)OC(=O)C1CCCCC1 (stereo unspecified),inactive: 8.37%
11,O=[N+]([O-])c1ccc(COc2ccc(-c3[nH]ncc3-c3ccccc3)c(O)c2)cc1,inactive: -4.08%
12,Cc1ccc(/C=C/C(=O)Nc2ccc(S(=O)(=O)Nc3onc(C)c3C)cc2)cc1,inactive: 14%
13,O=C(Nc1ccc(Cl)c(Cl)c1)Nc1ccc(Br)cc1F,inactive: 19.3%
14,O=C(c1ccco1)N(Cc1ccco1)Cc1cc2ccccc2[nH]c1=O,inactive: 9.1%
15,CC(=O)Nc1ccc(S(=O)(=O)Nc2cccc(S(=O)(=O)N(C)c3ccccc3)c2)cc1,inactive: 7.13%
16,Cc1cc(C(=O)N2C(C)CCCC2C)no1 (stereo unspecified),inactive: 12.7%
17,Cc1cc(C)c(NC(=O)CS(=O)CC(=O)NCC2CCCO2)c(C)c1 (stereo unspecified),inactive: 18.5%
18,Cn1cc(CCC(=O)NCCCc2ccccc2)c2ccccc21,inactive: 17.1%
19,NC(=O)COC(=O)CSc1ccc2ccccc2c1,inactive: 25.7%
20,Cc1ccc(/C=C2\SC(=O)N(CCC(=O)N3CCN(C)CC3)C2=O)cc1,inactive: -10.4%
21,CCOC(=O)C(OC(=O)c1sc(=S)n(C)c1C)C(C)=O (stereo unspecified),inactive: -4.54%
22,Cc1ccc(C)c(NC(=O)CN(C)C(=O)Cc2ccc(Cl)cc2Cl)c1,inactive: 10.1%
23,Cc1nnc(-c2ccc(Cl)cc2)[nH]c1=O,inactive: -8.67%
24,O=C(NC1CCC(O)CC1)c1ccc(Br)o1 (stereo unspecified),inactive: 1.93%

row,SMILES,growth rescue (activation)
1,CC(=O)Cc1nsc(NC(=O)c2ccc(-c3ccccc3Cl)o2)n1,inactive: 35.9%
2,C=CCOc1ccc(/C=C/C(=O)OCC(=O)N2CCN(C(C)=O)CC2)cc1,inactive: -10.7%
3,Cc1c(C(=O)Nc2nc3ccccc3[nH]2)cccc1[N+](=O)[O-],inactive: -4.8%
4,CC1=C(C(=O)N2CCOCC2)C(c2c(F)cccc2F)NC(=O)N1 (stereo unspecified),inactive: -0.617%
5,CC(C)OC(=O)Cn1nc(C(F)(F)F)c2c1CCCC2,inactive: -0.82%
6,O=C(NC(=S)NNS(=O)(=O)c1ccccc1)c1ccccc1[N+](=O)[O-],inactive: 23.9%
7,COc1cc(/C=C2\SC(=Nc3ccc(O)cc3)NC2=O)cc(OC)c1OC,inactive: -14%
8,Cc1ncc([N+](=O)[O-])n1CC(=O)Nc1ccc(F)c(F)c1,inactive: -2.23%
9,CCOC(=O)C1(Cc2ccc(Cl)cc2)CCN(CCCn2cccn2)CC1,inactive: 8.81%
10,Cc1ccc(SCC(=O)NN=C2CCN(C)CC2)cc1,inactive: 7.3%
11,Cc1ccc(S(=O)(=O)NN2C(=O)/C(=C/c3ccccn3)SC2=S)cc1,inactive: 8.81%
12,COc1ccc(-c2noc(-c3ccccc3C(=O)NCC3CCCO3)n2)cc1 (stereo unspecified),inactive: -10.5%
13,Cc1cc(NC(=O)Cn2nc([N+](=O)[O-])c(Br)c2C)no1,inactive: -2.7%
14,Cc1nc2nc(C)c(NS(=O)(=O)c3ccc(Cl)cc3)c(=O)n2[nH]1,inactive: 16.2%
15,CCOc1c(Cl)cc(CNCc2ccncc2)cc1OC,inactive: 11.5%
16,CCOc1ccc(S(=O)(=O)N2CCC(C(=O)N3CCCC3)CC2)cc1C,inactive: -20.7%
17,O=C(Nc1ccc(Br)cc1Cl)c1ccc(OCC2CCCO2)cc1 (stereo unspecified),inactive: 3.77%
18,COc1ccc(C(=O)O/N=C(\N)c2ccccn2)cc1,inactive: -20.1%
19,CN(C)S(=O)(=O)c1cc(C(=O)NCc2ccccc2)c(Cl)cc1Cl,inactive: 1.49%
20,N=c1n(Cc2ccc(Cl)cc2)c2ccccc2n1CC(O)COc1ccccc1 (stereo unspecified),inactive: 11.4%
21,Cc1ccnc(N2CCC(C(=O)NNC(=O)COc3cccc4ccccc34)CC2)n1,inactive: -4.06%
22,CC(=O)Nc1cccc(-c2nn[nH]n2)c1,inactive: 14.2%
23,CCOc1ccc(C(=O)NCCc2cnc[nH]2)cc1,inactive: 12.8%
24,Cc1cc2nc3c(=O)n(CCc4ccccc4)c(=O)[nH]c3nc2cc1N,inactive: -4.7%

row,SMILES,growth rescue (activation)
1,Cn1nnnc1SCCNC(=O)C1CCC(=O)N(Cc2ccc(Cl)cc2)C1 (stereo unspecified),inactive: -23%
2,COc1ccc(NC(=O)CS(=O)CC(=O)Nc2ccc(-n3cnnn3)c(C)c2)cc1 (stereo unspecified),inactive: 10.9%
3,CCOC(=O)c1ccc2nc(CCC(=O)N[C@H](C(=O)OC)C(C)C)c(=O)n(CC)c2c1,inactive: 12.1%
4,CSc1ccccc1C(=O)OCC(=O)N1CCCCCC1,inactive: -9.16%
5,CC(=O)Nc1ccc(/C=N/NC(=O)CCN2CCN(c3ccccc3)CC2)cc1,inactive: 2.57%
6,CCOc1ccc(NC(=O)CNC(=O)Cc2ccccc2)cc1,inactive: -7.77%
7,CC(=O)Cn1nnc2sc(-c3ccccc3)cc2c1=O,inactive: 12.1%
8,CCCCCCNC(=O)CCNS(=O)(=O)c1ccc(C)cc1,inactive: 3.63%
9,CCOC(=O)C1=C(C)N(C)C(=O)NC1c1c(O)ccc2ccccc12 (stereo unspecified),inactive: 5.66%
10,Cc1cc(=O)[nH]c(SCC(=O)O)c1C#N,inactive: 11.7%
11,CS(=O)(=O)N1CCC(C(=O)NNC(=O)Nc2ccc(F)c(Cl)c2)CC1,inactive: -25.4%
12,Cc1ccc(OC(C)C(=O)N2CCN(c3ccccn3)CC2)cc1 (stereo unspecified),inactive: 6.05%
13,CSc1ccccc1C(=O)C1CCCN(C(=O)c2ccc(N3CCOCC3)cc2)C1 (stereo unspecified),inactive: 7.97%
14,COc1cc(/C=N/NC(=O)c2cccc(NC(=O)c3ccccc3)c2)ccc1O,inactive: 13.3%
15,FC(F)(F)c1cnc(Oc2ccccc2-c2nnc(-c3ccc(Cl)cc3)o2)c(Cl)c1,inactive: 7.26%
16,CC(C)n1cc(CN2CCCC(C(=O)Nc3cccc(-c4cc5ccccc5[nH]4)c3)C2)cn1 (stereo unspecified),inactive: -29.4%
17,CCOc1cc(CNCCN2CCOCC2)ccc1OCc1ccccc1Cl,inactive: 19.4%
18,COc1ccc(C(=O)NNC2=NS(=O)(=O)c3ccccc32)cc1OC,inactive: 2.88%
19,CS(=O)(=O)c1ccccc1C(=O)Nc1nc2ccccc2[nH]1,inactive: -9.07%
20,COc1ccc(-n2cnnc2SCC(=O)N2CCN(c3ccccc3)CC2)cc1,inactive: -33.4%
21,Cc1cccc2c(C(=O)n3cccn3)cc(-c3ccccc3Cl)nc12,inactive: 17.3%
22,CCC(=O)Nc1ccc(Cl)c(NC(=S)NC(C)=O)c1,inactive: 10.7%
23,O=C(COC(=O)c1cc([N+](=O)[O-])ccc1NCCO)Nc1cccnc1Cl,inactive: 11.1%
